This is an account of results in PubChem BioAssay AID1346428 (National Center for Advancing Translational Sciences (NCATS), 2018).

About 1,200 (2.5%) of roughly 48,000 compounds were called active. Inconclusive results (about 2%) are left out.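 Rule for the calls: active = activation of at least 60% and not above a set upper limit (about 1 call in 100 departs from these limits); inconclusive = activation of 40% to 60%, or above that upper limit; inactive = activation under 40%.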 This is one part of the list.

Sequence of UniProt O75388 (O75388 whole entry, looked up): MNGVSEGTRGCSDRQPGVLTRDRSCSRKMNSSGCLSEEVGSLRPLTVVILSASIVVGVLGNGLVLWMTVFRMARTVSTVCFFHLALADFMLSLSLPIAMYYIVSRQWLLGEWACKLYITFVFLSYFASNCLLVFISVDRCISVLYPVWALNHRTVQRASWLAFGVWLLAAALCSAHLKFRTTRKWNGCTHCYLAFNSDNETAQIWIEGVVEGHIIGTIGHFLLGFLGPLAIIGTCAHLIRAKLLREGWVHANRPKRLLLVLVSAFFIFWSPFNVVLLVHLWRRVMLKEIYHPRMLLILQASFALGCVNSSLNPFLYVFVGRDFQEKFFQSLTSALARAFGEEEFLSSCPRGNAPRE

For the assay, the target named is Probable G-protein coupled receptor 32 (Homo sapiens) (UniProt O75388). Description: qHTS for Agonists of Human Resolvin D1 Receptor DRV1. To be noted: CHO-K1 GPR32 beta-arrestin PathHunter luminescence, 90 min; at 76.9 µM; hits give high values; zero percent set by DMSO-only wells. Put shortly:
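Beta-arrestin recruitment read-out: luminescence from complemented beta-Gal in CHO-K1 GPR32 PathHunter cells, measured 1 h after detection reagent at ambient temperature following 90 min compound exposure at 37 °C; DMSO served as basal (EC0) control.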
With `COc1cc(NC(=O)Cn2c(=O)n(Cc3ccco3)c(=O)c3sc4ccccc4c32)cc(OC)c1`, the activation is inactive: 10.4%.

Regarding `CCC(C)NC(=O)c1cc(-c2cccc(OC)c2)on1` (centres undefined), the activation was inactive: 11.7%.

With `Cc1ccc(C)c(N2CCN(C(=O)C3CCN(c4nc5ccc(C)cc5[nH]4)CC3)CC2)c1`, the activation is inactive: 46.4%.

As for `Cc1cccc(NC(=O)CSc2ncc3c(n2)-c2ccccc2N(Cc2ccc(F)cc2)S3(=O)=O)c1C`, the activation is inactive: -16.6%.

On to `Cc1ccc(N2CCN(C(=O)c3c(C)oc4ncn(CC(C)C)c(=O)c34)CC2)c(C)c1`, for which the activation is inactive: 5.45%.

Take `Cc1ccc(Oc2c(C(F)(F)F)oc3c(CN4CCC(C)CC4)c(O)ccc3c2=O)cc1`: the activation is inactive: -9.68%.

Regarding `CCc1cccc(NC(=O)CCC(=O)N2CCSc3ccccc32)c1`, the activation is inactive: -21.6%.

`CN(C)c1ccc(-c2nc(-c3cc4cc(Cl)ccc4oc3=O)cs2)cc1`: the activation is inactive: -10.5%.

Regarding `Cc1cc(-c2ccc(C)c(S(=O)(=O)N3CCN(c4cccc(C(F)(F)F)c4)CC3)c2)on1`, the activation was inactive: -3.23%.

In the case of `Cc1cccc(CCNC(=O)c2ccc3c(c2)N(Cc2ccccc2F)C(=O)c2ccccc2S3)c1`, the activation is inactive: -20.1%.

As to `CCC(=O)N1CCc2cc(Br)cc(S(=O)(=O)CCC(=O)NCc3ccc(Cl)cc3)c21`, the activation was inactive: -17.1%.

On to `Cc1nc(Oc2ccc(F)cc2Cl)c2oc3ccccc3c2n1`, for which the activation was inactive: -12.9%.

As to `CCOc1ccccc1NC(=O)CN(C)S(=O)(=O)c1ccc2nc(C)sc2c1`, the activation was inactive: -18.4%.

As to `CC(C)Oc1ccc(C(=O)N(Cc2ccco2)c2ccccn2)cc1`, the activation was inactive: 2.46%.

As for `Cc1ccc(NC(=O)CCc2nnc3n(C)c(=O)c4sccc4n23)cc1C`, the activation is inactive: 12.6%.

In the case of `CSC1=NC2(CCN(C(=O)NC3CCCCC3)CC2)N=C1c1ccc(C)c(C)c1`, the activation was inactive: 14.7%.

On to `Cc1ccc(CNC(=O)CC(C)S(=O)(=O)c2cc3c(cc2C)NC(=O)CO3)cc1` (centres undefined), for which the activation was inactive: -9.02%.

On to `O=C(Nc1sc2c(c1C(=O)NCc1ccco1)CCCC2)c1cc(=O)c2ccccc2o1`, for which the activation is inactive: 0.1%.

Take `COc1ccc(Br)cc1CNC(=O)c1cc2n(n1)CCCN(Cc1ccc(C)cc1)C2=O`: the activation was inactive: -17%.

Regarding `Cc1ccc(C)c(NC(=O)CN2C(=O)C(C)(C)c3ccccc32)c1`, the activation is inactive: -7.26%.

`CCc1ccc(CN(Cc2ccco2)c2cnc(S(C)(=O)=O)nc2C(=O)Nc2ccccc2Cl)cc1`: the activation was inactive: -16.6%.

In the case of `CCc1nnc(SC(CC)C(=O)Nc2cccc(OC)c2)c2cc3oc(C)cc3n12` (centres undefined), the activation was inactive: -28.2%.

Regarding `Cc1ccc(Sc2c(C)nn(C(C)(C)C)c2OC(=O)C(C)(C)C)cc1`, the activation was inactive: 4.46%.

For `Fc1ccc(Nc2c3c(nc4ccccc24)CCC3)cc1`, the activation is inactive: 34.3%.

As for `COC(=O)c1scc(-c2ccc(C)cc2)c1S(=O)(=O)N1CCN(c2cccc(OC)c2)CC1`, the activation was inactive: -5.12%.

On to `CCOC(=O)c1ccc(NC(=O)CC2C(=O)OCCN2CC)cc1` (centres undefined), for which the activation is inactive: 24.3%.

As to `O=C(NCc1ccco1)c1ccc2c(c1)N(Cc1ccc(Cl)cc1)C(=O)c1ccccc1S2=O` (centres undefined), the activation was inactive: -11.1%.

On to `CCN(c1ccccc1)c1nnc(NC(=O)Nc2ccccc2F)s1`, for which the activation was inactive: -1.6%.

On to `CCN(C(=O)C1CCCN(S(=O)(=O)c2c(C)noc2/C=C/N(C)C)C1)c1cccc(C)c1` (centres undefined), for which the activation is inactive: -34.7%.

In the case of `COc1ccc(NC(=O)C2=C(C)Nc3nc(SCc4ccccc4C)nn3C2c2cc(OC)c(O)c(OC)c2)cc1` (centres undefined), the activation is inactive: -1.07%.

Turning to `Cc1ccc(-n2ncc(C(=O)NCc3cccs3)c2C2CCN(C(=O)OC(C)(C)C)CC2)c(C)c1`, the activation was inactive: -0.841%.

Turning to `CCC(Sc1nc2cc(OC)c(OC)cc2c2nc(-c3ccccc3)nn12)C(=O)Nc1cccc(C)c1` (centres undefined), the activation is inactive: 9.37%.

Consider `O=C(NCc1ccccc1Cl)c1ccc(CSCc2ccccc2Cl)o1`, for which the activation was inactive: -30.1%.

For `COc1ccc(OC)c(NC(=O)CSc2nnc3ccc4ccccc4n23)c1`, the activation is inactive: 3.17%.

Take `Cc1ccc(CSc2nnc(CCNC(=O)OC(C)(C)C)o2)cc1`: the activation was inactive: 15.2%.

As for `COc1ccc(NC(=O)CCn2c(=O)c3cccn3c3cccnc32)c(OC)c1`, the activation is inactive: -12%.

`CCC(C(=O)NCc1ccccc1)n1nc(C)c2sc3ccccc3c2c1=O` (centres undefined): the activation is inactive: -10.3%.

Turning to `COc1ccccc1OC(C)C(=O)Nc1ccc(-c2nc3ccccc3s2)cc1` (centres undefined), the activation was inactive: -7.75%.

Regarding `CCc1ccc(NC(=O)CCn2nc(-c3ccccc3OC)c3c(C)cc(C)nc32)cc1`, the activation is inactive: -6.61%.

As to `Cc1ccc(-c2nnc(Nc3cccc(O)c3)c3ccccc23)cc1S(=O)(=O)N1CCOCC1`, the activation is inactive: 32.5%.

As to `COc1ccc(-c2noc(CC(=O)Nc3ccc(F)cc3F)n2)cc1`, the activation was inactive: -11.4%.

On to `CN(Cc1ccccc1)C(=O)Nc1ccc2c(c1)N(C)C(=O)c1ccccc1S2`, for which the activation is inactive: -22.7%.

On to `c1ccc(Nc2c(-c3c[nH]c4ccccc34)nc3ccccn23)cc1`, for which the activation is inactive: -18.2%.

For `COc1ccc(-c2cc(C(=O)OC(C)C(=O)c3ccccc3)c3cccc(Cl)c3n2)cc1` (centres undefined), the activation was inactive: 0.735%.

As to `Cc1ccc2nc(N3CCC(C(=O)N4CCN(c5cccc(Cl)c5)CC4)CC3)[nH]c2c1`, the activation was inactive: 4.22%.

Consider `CC(C)CCOC(=O)c1ccc(N(C)C)cc1`, for which the activation was inactive: -18.6%.

Turning to `CCOCCCNC(=O)C(c1ccc(C)cc1)N(Cc1ccc2c(c1)OCO2)C(=O)c1ccc(NC(C)=O)cc1` (centres undefined), the activation was inactive: -3.96%.

Consider `CCC(C)NC(=O)c1ccccc1NC(=O)CN1C(=O)c2cccc3cccc1c23` (centres undefined), for which the activation is inactive: -13.1%.

Regarding `CC(C)Nc1ccc(-c2nc(-c3ccco3)no2)cc1[N+](=O)[O-]`, the activation is inactive: -9.46%.

Consider `Cc1ccc(C2c3[nH]c4ccccc4c3CCN2C(=O)c2cccc(C)c2)cc1` (centres undefined), for which the activation was inactive: -40%.

As for `CC1CC(OC(=O)C(O)c2ccccc2)CC(C)(C)N1C` (centres undefined), the activation is inactive: 12.8%.

Consider `Cc1cccc(OCC(=O)Nc2ccc(Cl)c(-c3nc4ncccc4o3)c2)c1C`, for which the activation is inactive: 9.91%.

For `COc1cc2cc(CNc3ccc(C)cc3)c(=O)n(CC(=O)Nc3ccc(F)cc3F)c2cc1OC`, the activation is inactive: -37%.

Consider `CC(C)NC(=O)CN1C(=O)COc2ccc(S(=O)(=O)N3CCCCCC3)cc21`, for which the activation was inactive: -6.12%.

On to `CCOC(=O)c1c(C)[nH]c(CCC(=O)Nc2ccc(C)c(F)c2)c1C`, for which the activation was inactive: -4.53%.

As for `COc1cc(C(=O)NCC(c2cccs2)S(=O)(=O)c2ccc(F)cc2)cc(OC)c1OC` (centres undefined), the activation is inactive: 13.3%.

In the case of `Cc1cccc(NC(=O)c2nnn(CC(=O)Nc3ccc(C(C)C)cc3)c2N)c1C`, the activation is inactive: -6.95%.

For the compound `CCN(CCCNC(=O)c1cc2c(=O)n(CC)c3ccccc3c2s1)c1ccccc1`, the activation is inactive: 4.81%.

Take `COCCCNC(=O)c1c(NC(=O)Cc2coc3cc(C)cc(C)c23)sc2c1CCCC2`: the activation is inactive: -5.85%.

Consider `COc1ccc(OC)c(CNC(=O)Cc2ccc(NC(=O)N3CCCCc4ccccc43)cc2)c1`, for which the activation is inactive: 12.7%.

As for `CCc1ccc(CNC(=O)CSc2cc(=O)n(C)c3ccc(Cl)cc23)cc1`, the activation was inactive: 23.1%.

`O=C(c1ccc2c(c1)N(Cc1ccccc1F)C(=O)c1ccccc1S2(=O)=O)N1CCCC1`: the activation is inactive: -2.07%.

Take `COc1ccc(-c2cc(-c3ccccc3)nc(SCC(=O)CC(=O)OC(C)C)c2C#N)cc1`: the activation was inactive: 47.4%.

Consider `CC(NC(=O)CCSCc1ccccc1F)c1ccccc1` (centres undefined), for which the activation is inactive: -20.8%.

As to `Cc1cc(F)ccc1NCc1ccccc1-c1nnc(-c2ccccc2Cl)o1`, the activation is inactive: -15.2%.

For the compound `O=C(NCC(c1cccnc1)N1CCc2ccccc21)c1cccc(C(F)(F)F)c1` (centres undefined), the activation is inactive: -30.3%.

As to `COc1ccc(C(=O)N(Cc2cc(OC)c(OC)c(OC)c2)CC2CCCO2)cc1` (centres undefined), the activation was inactive: -16.2%.

As to `COc1ccc(CCCc2nnc(SCC(=O)Nc3ccc(C)cc3C)o2)cc1`, the activation was inactive: 23.4%.

For the compound `CCN(CC)S(=O)(=O)c1cc(-c2onc(C)c2C)ccc1OC`, the activation is inactive: -8%.

Take `CCCNC(=O)CSc1nc2nc(C)c(Cc3ccccc3Cl)c(C)n2n1`: the activation is inactive: -23.2%.

With `Cc1ccc(-c2noc(-c3nnn(CC(=O)Nc4cc(C)cc(C)c4)c3N)n2)cc1`, the activation was inactive: 0.1%.

With `O=C(CSc1nccn1Cc1ccc(F)cc1)Nc1ccc2c(c1)OCCO2`, the activation was inactive: -14.5%.

For `CCc1ccc(C(=O)c2cn(CC(=O)Nc3ccc(OC)cc3OC)c3ccc(CC)cc3c2=O)cc1`, the activation is inactive: 0.316%.

With `O=C(NCc1cccc(Cl)c1)C1CCN(C(=O)c2sccc2-n2cccc2)CC1`, the activation was inactive: -15.6%.

As to `COc1cccc(C(=O)Nc2cccc(C(=O)OCc3cc(=O)n4nc(C(C)C)sc4n3)c2)c1`, the activation was inactive: -8.6%.

`Cc1ccc(N(C)C(=O)c2cnc(N3CCOCC3)c3ccccc23)cc1C`: the activation was inactive: -16.6%.

Turning to `CC(=O)N1CCC(N(C(=O)Nc2c(F)cccc2F)C(C)C)CC1`, the activation was inactive: 9.13%.

As to `COc1cc(C(=O)Nc2ccc3nc(SCc4ccccc4)sc3c2)cc(OC)c1OC`, the activation is inactive: -8.91%.

`COc1ccccc1/C=C/c1nc(C#N)c(N(C)C)o1`: the activation was inactive: 4.22%.

Regarding `Cc1c2cnn(CC(=O)Nc3cccc(C(F)(F)F)c3)c(=O)c2c(C)n1Cc1ccccc1Cl`, the activation was inactive: -3.51%.

As to `CCOC(=O)N1CCc2c(sc3c2c(=O)n(-c2ccc(CC)cc2)c(=O)n3CC(=O)c2ccc(F)cc2)C1`, the activation is inactive: -13.8%.

As for `Cc1c2cnn(CC(=O)NC(C)C)c(=O)c2c(C)n1Cc1ccccc1Cl`, the activation is inactive: -2.01%.

On to `CCC(Sc1nncn2c1cc1occc12)C(=O)Nc1ccc(C)c(Cl)c1` (centres undefined), for which the activation is inactive: -15.1%.

Regarding `CCN(C(=O)CSc1nc2ccccc2n1Cc1cc(C)ccc1C)c1ccccc1`, the activation was inactive: 0.779%.
